Results on 14 molecules are retold here after paper PMC12136788.

Some of the results follow.

To fix the notation:
T1: UNK ZnF1-6 (called full-length) (human, UniProt Q9C0B0 30-357)
T1 sequence: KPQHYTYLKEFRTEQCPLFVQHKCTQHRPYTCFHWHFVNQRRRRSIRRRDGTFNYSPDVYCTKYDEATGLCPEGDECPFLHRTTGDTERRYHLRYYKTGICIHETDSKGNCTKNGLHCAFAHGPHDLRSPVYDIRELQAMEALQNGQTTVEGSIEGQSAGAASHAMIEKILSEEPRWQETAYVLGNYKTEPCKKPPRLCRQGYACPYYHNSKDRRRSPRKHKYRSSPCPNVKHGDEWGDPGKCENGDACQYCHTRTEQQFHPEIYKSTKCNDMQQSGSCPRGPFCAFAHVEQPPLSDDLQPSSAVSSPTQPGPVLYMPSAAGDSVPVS

B1: chr10:128098031:128098192:-|3pUTR|ENSG00000148773|msi1|total|mutant (ssRNA)
RNA: GGGAGUUCUACAGUCCGACGAUCCAUCUUCAUUUACUUUCCACUUUGCCCCCUGUCCUCUCUGUGUUCCCCAAAUCAGAGAACCGCCCGCCAUCCCCCAGGUCACCUGUCUGGAUUCCUCCCCAUUCACCCACCUUGCCAGGUCAACAGAGGAUUGAGCAUCA
B2: chr3:149172415:149172516:+|3pUTR|ENSG00000163755|unk|total|mutant (ssRNA)
RNA: GGGAGUUCUACAGUCCGACGAUCUUACCGUGCCGUGGUAACUAUUCACUUCUUAAUUUAUGACCUCAAUCAAUUUAAUUGUCCCGAAUGUAAAAAGUCUUUAAGACAUAAGAAUUCCUCAAAGAAGCCAUACAUUUUUUAAGGCAACAGAGGAUUGAGCAUCA
B3: chr13:25097967:25098071:+|CDS|ENSG00000151846|unk|FALSE|unique (ssRNA)
RNA: GGGAGUUCUACAGUCCGACGAUCAGAACUUCUUUAUAUGCUCGAGUCUCCAGAGUCACUCCGUUCUAAGGUUGAUGAAGCUGUAGCUGUACUACAAGCCCACCAAGCUAAAGAGGCUACCCAGAAAGCAGUUAACAGUGCUACCAACAGAGGAUUGAGCAUCA
B4: chr1:21603657:21603912:-|CDS|ENSG00000076864|control|control|control (ssRNA)
RNA: GGGAGUUCUACAGUCCGACGAUCAUUGCUUAUUCCUGGGAAAAGUGCGAGUAGAUUCGGACGCCGGGGCAGUGCCAUAGGCAUAGGAACCGUGGAAGAGGUUGUCGUCCGCGGGGCCGCCGGCUCUGGAGGCUGCCUGCACGCCAACAGAGGAUUGAGCAUCA
B5: chr12:71139710:71139848:-|CDS|ENSG00000127324|control|control|control (ssRNA)
RNA: GGGAGUUCUACAGUCCGACGAUCUUUUGGUUCUGAAGAUGUAGGCUCUAGCUCCUACGUUGCUGUGGACAUAUUGAUUGCUGUAGGUGCCAUCAUCAUGAUUCUGGGCUUCCUGGGAUGCUGCGGUGCUAUAAAAGAAAGUCGCAACAGAGGAUUGAGCAUCA
B6: ENSG00000142669:stop:overlap|stop_codon|ENSG00000142669|stop_codon|NA|stop_codon (ssRNA)
RNA: GGGAGUUCUACAGUCCGACGAUCAGUACUGUGGGGUAUGGGCUGGGGGACGGGGGGGUGGGGGGAGUGUUGGAAGAGGACUCUAGCCAGGGUCAUAUCUGCCACAAAGCACUUGGGCCCCCUGCAUUCAGGUGACCACCCCUCCAACAGAGGAUUGAGCAUCA
B7: ENSG00000188706:stop:overlap|stop_codon|ENSG00000188706|stop_codon|NA|stop_codon (ssRNA)
RNA: GGGAGUUCUACAGUCCGACGAUCAAGAGAUGCCACCUCCAGAGCCCCCAGAGCCACCACAGGAGGCAGCUGAAGCUGAGAAGUAGCCUAUCUAUGGAAGAGACUUUUGUUUGUGUUUAAUUAGGGCUAUGAGAGAUUUCAGGUCAACAGAGGAUUGAGCAUCA
B8: chr5:36975901:36976008:+|CDS|ENSG00000164190|unk|total|mutant (ssRNA)
RNA: GGGAGUUCUACAGUCCGACGAUCAUGAAAUCCGGCAAGGAUGAAAAAGAGCAGAGUGAGAAAGCGGCAAUGUAUGAUAUAAUCCGUUCUCCAUCCAAGGACUCUACUAAACUUACAUUAAGACUUUCUCGUGUAAGGUCUUCACAACAGAGGAUUGAGCAUCA
B9: chr22:21763623:21763656:-|3pUTR|ENSG00000100030|msi1_unk|FALSE|overlapping (ssRNA)
RNA: GGGAGUUCUACAGUCCGACGAUCGUGCUUCCGUCUCCGGAAUCCUUGGGGAGCACUUGUCCACGUCUUUUCUCAUAUCAUGGUAGUCACUAACAUAUAUAAGGUAUGUGCUAUUGGCCCAGCUUUUAGAAAAUGCAGUCAUUUCAACAGAGGAUUGAGCAUCA
B10: chr17:78853230:78853302:-|3pUTR|ENSG00000035862|msi1_unk|FALSE|overlapping (ssRNA)
RNA: GGGAGUUCUACAGUCCGACGAUCCUCUUCUCCUAUUUUCAUCCUGCAAGCAACUCAAAAUAUUUAAAAUAAAGUUUACAUUGUAGUUAUUUUCAAAUCUUUGCUUGAUAAGUAUUAAGAAAUAUUGGACUUGCUGCCGUAAUUCAACAGAGGAUUGAGCAUCA
B11: chr5:137752703:137752764:-|3pUTR|ENSG00000177733|msi1_unk|total|mutant (ssRNA)
RNA: GGGAGUUCUACAGUCCGACGAUCGGGAGGGAGUGAACUUGCUGAUUCUGCCGCAAAACCUGGGUGGGGGUUGGGGUGGGGGGCCGUUUACUUUGUUGUAAGGACUUGAUAACCUGGCUACAGCGUUUUCUAUGAAAUCUACUUCAACAGAGGAUUGAGCAUCA
B12: chr22:29528936:29529239:-|three_prime_utr|ENSG00000100296|control|control|control (ssRNA)
RNA: GGGAGUUCUACAGUCCGACGAUCGAUUCGUCCCCCAGGGACACCAGGUCACCAUCCAAGGGCAGUCCUGGUCUUUGGAGAACUAGCUGGACUAGUUCUGUGUAGCAGGAAGCUUGACUUGAAUGUCUUAGCACCCUGGAGUAGCAACAGAGGAUUGAGCAUCA
B13: chr6:52502144:52502313:-|3pUTR|ENSG00000065308|msi1|FALSE|unique (ssRNA)
RNA: GGGAGUUCUACAGUCCGACGAUCUCAGCCAUUCACAAGCAUUCAAAACCAAACCAAACAGCAGUUCAUAUACCUGCCUGAGAUAGGCUGGUCCUCACCUCCAGAGCCAGCCAGCCCCGUCAGGGGCCAAACUUACUACCUUGACAACAGAGGAUUGAGCAUCA
B14: ENSG00000198589:be:win_8301|CDS|ENSG00000198589|bound_else_gene|NA|bound_elsewhere_windowed (ssRNA)
RNA: GGGAGUUCUACAGUCCGACGAUCAGAUGAUAACAUAAGAGCCAUCCAGCUGAGCCGAGAUGGGCAGUACCUGCUCACAGGAGGAGACAGAGGAGUGGUCGUGGUCCGGCAGGUGUCGGACCUCAAGCAGCUCUUUGCCUAUCCCAACAGAGGAUUGAGCAUCA

The test concerns the target T1, UNK ZnF1-6 (called full-length). In words: nsRBNS (natural sequence RNA bind-n-seq); RBNS binding buffer (assumed for nsRBNS): 25 mM Tris pH 7.5, 150 mM KCl, 3 mM MgCl2, 0.01% Triton X-100, 500 ug/ml BSA, 20 U/ml SUPERase-In, 4 C; UNK is unkempt and MSI1 is Musashi-1; names of the RNAs are library labels; protein concentration not given here; high values mean tight binding.
As for B1, the binding signal is 1.05 enrichment R.
Consider B2, for which the binding signal was 0.773 enrichment R.
In turn, B3 showed a binding signal of 0.494 enrichment R.
The molecule B4 displayed a binding signal of 0.611 enrichment R.
As for B5, the binding signal was 0.474 enrichment R.
For B6 the value was 1.02 enrichment R; for B7, 0.965 enrichment R; for B8, 0.371 enrichment R.
For B9 the value was 0.483 enrichment R.
On to B10, for which the binding signal was 1.71 enrichment R.
Molecule B11 gave a binding signal of 0.973 enrichment R.
For B12 the value was 1.08 enrichment R.
Next, B13: 0.618 enrichment R; B14: 0.579 enrichment R.
